{"source": "PubChem BioAssay AID1457", "about": "(National Center for Advancing Translational Sciences (NCATS), 2008)", "note": "In all, about 210,000 compounds went through this assay and about 730 (0.35%) were called active. The inconclusive results got no clear call from the source; some entries with a clear call stand among them for comparison. Calls come from the whole dose curve; as a rule, active = well fitted inhibition curve with a large enough effect; inconclusive = small, poorly fitted or top-dose-only effect; inactive = no such curve, though single readings can be large or run the other way. Where the call is inconclusive, the potency comes from a doubtful curve fit. Potency is the fitted concentration of half-maximal effect.", "data": [{"experiment": "qHTS Assay for Identifying the Cell-Membrane Permeable IMPase Inhibitors: Potentiation with Lithium; note: nearly all actives have a fitted effect of over 50% in size", "settings": "CHO-M1 cells, IP1 TR-FRET (IP-One), carbachol + lithium; series mostly up to 59.4 µM", "outline": "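CHO-M1, 2000 cells/well, 16–30 h culture; cpd + low Li+, 30 min 37C; lysis with d2-IP1/Eu-anti-IP1 Ab, 10 min RT; TR-FRET 665/620 ratio and 620 channel; AC50 via Hill.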", "values": [{"smiles": "CCOc1c(C(N)=O)c(-c2ccccc2)c2c(=O)[nH]c3ccccc3n12", "Potency": "inconclusive: 10 µM [inhibitor, partial curve]"}, {"smiles": "CCCCCCC(=O)Nc1c2c(nc3ccccc13)N(C)CC2", "Potency": "inconclusive: 28.2 µM [inhibitor, single point]"}, {"smiles": "N#CC1(c2ccccc2)CCCN1C(=O)c1ccc(Br)o1", "note": "(configuration not stated)", "Potency": "inconclusive: 12.6 µM [inhibitor, single point]"}, {"smiles": "COc1ccc2cc3c(N)nn(C(=O)Cc4ccc(Cl)cc4)c3nc2c1", "Potency": "inactive"}, {"smiles": "N/C(Cc1ccc(Cl)cc1Cl)=N\\OC(=O)c1cccs1", "Potency": "inactive"}, {"smiles": "COc1cc(NC(=O)c2ccc3c(c2)OCO3)c2ncccc2c1", "Potency": "inconclusive: 28.2 µM [inhibitor, single point]"}, {"smiles": "Cc1ccc(-c2c(C#N)c(N)n(-c3ccccc3)c(=O)c2C#N)cc1", "Potency": "inconclusive: 28.2 µM [inhibitor, single point]"}, {"smiles": "Cc1ccccc1C(=O)Nc1nnc(-c2ccc(C(C)(C)C)cc2)s1", "Potency": "inconclusive: 28.2 µM [inhibitor, single point]"}, {"smiles": "CC(C)(C)c1nnc(NC(=O)c2cc(-c3ccccc3)nc3ccccc23)s1", "Potency": "inconclusive: 28.2 µM [inhibitor, single point]"}, {"smiles": "CCCNC(=O)Cc1c(OC)ccc2cc(Br)ccc12", "Potency": "inconclusive: 28.2 µM [inhibitor, single point]"}, {"smiles": "O=C(CSCc1c(F)cccc1Cl)NCCSCc1ccco1", "Potency": "inactive"}, {"smiles": "Cc1cc(NC(=O)CSc2nc3ccccc3c(=O)n2Cc2ccc(F)cc2)no1", "Potency": "inconclusive: 28.2 µM [inhibitor, single point]"}, {"smiles": "CC(=O)C1=C(O)C(=O)N(c2ccc(S(N)(=O)=O)cc2)C1c1ccccc1F", "note": "(configuration not stated)", "Potency": "inconclusive: 22.4 µM [inhibitor, single point]"}, {"smiles": "COc1cc(NC(=O)Cn2c(C)cc3ccccc3c2=O)cc(OC)c1OC", "Potency": "active: 25.1 µM"}, {"smiles": "Cc1nc(SCCC(=O)O)c2ccccc2n1", "Potency": "active: 12.6 µM"}, {"smiles": "Cc1cc(NC(=O)c2ccc3nc(C)sc3c2)no1", "Potency": "inconclusive: 28.2 µM [inhibitor, single point]"}, {"smiles": "COc1ccc2c(C)cc(SCC(=O)Nc3cccnc3Cl)nc2c1", "Potency": "inconclusive: 25.1 µM [inhibitor, single point]"}, {"smiles": "Cc1cc(NC(=O)CSc2nc3ccccc3c(=O)n2-c2ccccc2)no1", "Potency": "active: 7.08 µM"}, {"smiles": "COCC(=O)Nc1ccc(Nc2ccccc2)cc1", "Potency": "inactive"}, {"smiles": "Nc1c(C(=O)Nc2ccc(Br)cc2)sc2nc(-c3ccco3)ccc12", "Potency": "active: 11.2 µM"}, {"smiles": "CCCC[C@@H]1C[C@H]1C(NS(=O)(=O)c1cccc2cccnc12)c1ccc(-c2ccccc2)cc1", "note": "(some centres not stated)", "Potency": "inactive"}, {"smiles": "CS(=O)(=O)c1sc2nc(-c3ccccc3)cc(-c3ccccc3)c2c1N", "Potency": "inconclusive: 28.2 µM [inhibitor, single point]"}, {"smiles": "COc1ccc(NC(=O)CSC2=C(C#N)C(c3ccco3)C3=C(CCCC3=O)N2)c(OC)c1", "note": "(configuration not stated)", "Potency": "inconclusive: 28.2 µM [inhibitor, single point]"}, {"smiles": "O=C(Nc1cccc(C(F)(F)F)c1)c1ccc(Cn2cc(Br)cn2)o1", "Potency": "inconclusive: 28.2 µM [inhibitor, single point]"}, {"smiles": "COc1ccc(NC(=O)c2ccc(C(=O)c3cc(OC)ccc3OC)cc2)cc1", "Potency": "inconclusive: 28.2 µM [inhibitor, single point]"}, {"smiles": "O=[N+]1C2=C(CCCC2)N([O-])C12CCCC2", "Potency": "inconclusive: 28.2 µM [inhibitor, single point]"}, {"smiles": "C[N@@+]1(Cc2ccc(Cl)c(Cl)c2)CCC[C@@H]1c1ccc[n+](Cc2ccc(Cl)c(Cl)c2)c1", "Potency": "inactive"}, {"smiles": "CC(=O)Oc1ccc(Cl)cc1/C=C/c1cc(OC(C)=O)c2ccccc2n1", "Potency": "inactive"}, {"smiles": "CCc1nc(SCC(=O)NCc2ccco2)c2c3c(sc2n1)CCCC3", "Potency": "inactive"}, {"smiles": "Cc1cc(C(F)F)n2nc(C(=O)Nc3ccccc3Br)nc2n1", "Potency": "inconclusive: 28.2 µM [inhibitor, single point]"}, {"smiles": "O=C1CC(c2ccc(F)cc2)Cc2nc(N3CCc4ccccc43)ncc21", "note": "(configuration not stated)", "Potency": "inconclusive: 28.2 µM [inhibitor, single point]"}, {"smiles": "COc1ccc(CCC(=O)Nc2sccc2C#N)cc1", "Potency": "inactive"}, {"smiles": "O=C(Nc1cc(F)cc(F)c1)c1sc(Cl)nc1-c1ccccc1", "Potency": "inconclusive: 28.2 µM [inhibitor, single point]"}, {"smiles": "CCc1cc2c(CN3CCN(CCO)CC3)cc(=O)oc2cc1O", "Potency": "inconclusive: 11.2 µM [inhibitor, single point]"}, {"smiles": "CC1(C)Cc2c(c(N3CCCCC3)[nH]c(=S)c2C#N)CS1", "Potency": "inactive"}, {"smiles": "Cc1ccccc1NC(=O)CSc1nc(N)c2c3c(sc2n1)CSC(C)(C)C3", "Potency": "inactive"}, {"smiles": "COCC(=O)Nc1ccccc1C(=O)Nc1ccc(OC)cc1", "Potency": "active: 31.6 µM"}, {"smiles": "COc1ccc(-c2nc(NC(=O)c3ccc(OCC(=O)Nc4ccc(F)cc4)c(OC)c3)sc2C)cc1", "Potency": "inconclusive: 28.2 µM [inhibitor, single point]"}, {"smiles": "COc1ccc2[nH]c(-c3ccccc3)c(CCNC(C)=O)c2c1", "Potency": "inconclusive: 31.6 µM [inhibitor, single point]"}, {"smiles": "Cc1nn(C)c(=O)n1-c1ccccc1", "Potency": "inactive"}, {"smiles": "N#Cc1cn(-c2ccccc2)nc1-c1ccc2c(c1)OCCO2", "Potency": "inconclusive: 20 µM [inhibitor, single point]"}, {"smiles": "CCOC(=O)c1ccc(NC(=O)CC2NCCNC2=O)cc1", "note": "(configuration not stated)", "Potency": "inconclusive: 31.6 µM [inhibitor, partial curve, poor fit]"}, {"smiles": "Cc1nonc1NC(=O)CSc1nc2cc(Cl)ccc2c2c1CCCC2", "Potency": "inconclusive: 28.2 µM [inhibitor, single point]"}, {"smiles": "CC(=O)Nc1ccc(NC(=O)CCCCCN2C(=O)c3ccccc3C2=O)cc1", "Potency": "inactive"}, {"smiles": "CCOc1cccc(-c2nnc3sc(-c4cc(OC)c(OC)c(OC)c4)nn23)c1", "Potency": "inconclusive: 12.6 µM [inhibitor, single point]"}, {"smiles": "CC(C(=O)OCC(=O)Nc1ccc(S(=O)(=O)N2CCCCC2)cc1)N1C(=O)c2ccccc2C1=O", "note": "(configuration not stated)", "Potency": "inactive"}, {"smiles": "COc1ccc(/C(O)=C2/C(=O)C(=O)N(c3ncccn3)C2c2ccc(C(C)(C)C)cc2)cc1", "note": "(configuration not stated)", "Potency": "inconclusive: 10 µM [inhibitor, partial curve]"}]}]}
